These results are taken from PubChem BioAssay AID488969 (Vanderbilt High Throughput Screening Facility, 2010).

Whole data set: some 110,000 compounds, median “z-score” near -0.1, cut for the highest 2% near 2. This is one part of the list.

The test has as its target Metabotropic glutamate receptor 8 (Rattus norvegicus) (UniProt P70579). Kind of test: rat mGluR8 modulators via GIRK flux, primary screen, cell-based, thallium flux, HTS (AID 488969). Conditions: HEK293 rat mGluR8, GIRK (G protein-gated inwardly rectifying potassium channel) thallium flux, FluoZin2; at 10 µM; stronger effect = higher value; submaximal glutamate (EC20) added with thallium.
Sequence of UniProt P70579 (P70579 whole entry, looked up): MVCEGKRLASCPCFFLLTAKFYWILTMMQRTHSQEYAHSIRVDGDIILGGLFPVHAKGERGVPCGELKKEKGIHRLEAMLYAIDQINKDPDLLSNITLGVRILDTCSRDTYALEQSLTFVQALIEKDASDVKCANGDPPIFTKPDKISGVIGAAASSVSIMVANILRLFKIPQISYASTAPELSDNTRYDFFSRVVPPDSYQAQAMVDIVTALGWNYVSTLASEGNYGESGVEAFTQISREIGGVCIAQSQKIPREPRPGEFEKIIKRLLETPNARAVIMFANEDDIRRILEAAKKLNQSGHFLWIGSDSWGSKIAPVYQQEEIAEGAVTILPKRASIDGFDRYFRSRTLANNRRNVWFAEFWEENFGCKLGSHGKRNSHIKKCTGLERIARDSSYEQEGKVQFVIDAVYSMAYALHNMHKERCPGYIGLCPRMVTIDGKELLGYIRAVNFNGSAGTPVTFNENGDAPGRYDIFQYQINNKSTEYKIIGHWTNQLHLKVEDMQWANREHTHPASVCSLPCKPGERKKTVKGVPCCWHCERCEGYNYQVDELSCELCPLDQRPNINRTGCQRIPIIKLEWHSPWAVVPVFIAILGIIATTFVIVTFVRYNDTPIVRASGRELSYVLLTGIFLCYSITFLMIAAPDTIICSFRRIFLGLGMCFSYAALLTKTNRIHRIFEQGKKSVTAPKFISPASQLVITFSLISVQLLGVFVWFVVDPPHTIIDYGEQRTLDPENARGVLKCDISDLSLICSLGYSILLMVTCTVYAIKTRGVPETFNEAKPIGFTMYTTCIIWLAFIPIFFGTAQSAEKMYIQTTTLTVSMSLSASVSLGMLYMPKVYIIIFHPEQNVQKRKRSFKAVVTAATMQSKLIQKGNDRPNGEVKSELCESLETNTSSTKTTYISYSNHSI
With `O=C(NCc1ccco1)c1cccn2c(=O)c3sccc3nc12`, the z-score was -1.77. To `CCc1ccc(/C=C/C(=O)c2ccc(N3CCOCC3)cc2)cc1` belongs 0.286; to `O=S(=O)(c1cccc2nsnc12)N1CCN(c2ncccn2)CC1`, -0.0743; to `CC1(C)CC(=O)C(C=NCCN2CCN(CCCCS(=O)(=O)O)CC2)=C(O)C1`, -0.0822.

`COc1ccc(Br)cc1/C=N/Nc1cccc(C(=O)O)c1` came in with a z-score of -0.59. `COC(C(=O)Nc1ccc(S(=O)(=O)N2CCCCC2)cc1)c1ccccc1` (stereo not drawn) yielded a z-score of -1.67. `O=C(Nc1nc(-c2cccc(Br)c2)cs1)Oc1ccccc1` gave a z-score of -0.0227. To `COc1ccc(-c2cc(C(=O)Nc3ccc(C)cc3)no2)cc1` belongs 0.77; to `Cc1ccc2nc(-c3ccc(NC(=O)CCN4C(=O)c5ccccc5C4=O)cc3)sc2c1`, 0.075; to `Cc1cc(NC(=O)CSc2nnc3c(C)cc4c(C)ccc(C)c4n23)no1`, 1.03. For `Cn1c(=O)[nH]c(=O)c2c1nc(NCCCO)n2CCCc1ccccc1`, the z-score came to 0.0396. `COc1cccc(/C=N/NC(=O)C(=O)NCc2cccnc2)c1` showed a z-score of -0.185. With `O=C1c2cccc(Cl)c2C(=O)c2c1cccc2N1CCCC1`, the z-score was -0.316. Regarding `COc1cccc(-c2nc3ccccc3c(=O)o2)c1`, the z-score was -0.323. `Cc1cc(Cl)c(S(=O)(=O)N(C)C)cc1OCC(N)=O` returned a z-score of 0.291.

With `Cc1cc(C)c(N(C(=O)CN2C(=O)c3ccccc3S2(=O)=O)C(C(=O)NCC2CCCO2)c2ccc(F)cc2)c(C)c1` (stereo not drawn), the z-score was -0.14. The result for `Cc1noc(NS(=O)(=O)c2ccc(NC(=O)CCC3CCCCC3)cc2)c1C` reads 0.14; that for `CCOC(=O)c1c(C)n(C)c2cc(-c3ccc(F)cc3)c(O)cc12`, -0.428; that for `O=CN1CCN(C(=O)c2ccccc2F)CC1`, -0.00956. In turn, `Cc1cccc(NC(=O)COc2ccc3oc4c(c3c2)CCCC4)n1` gave a z-score of -0.0747.

For `O=C(Nc1ccccc1)c1ccc(S(=O)(=O)N2CCCCC2)cc1`, the z-score is -0.0563. To `O=C(NCC1CCCO1)C(c1cccs1)N(Cc1cccs1)C(=O)Cn1nnc(-c2cccs2)n1` (stereo not drawn) belongs -0.109. To `COc1ccccc1Nc1ncc(-c2cccs2)s1` belongs 1.05; to `CCCNc1ccc(S(=O)(=O)N(CC)CC)cn1`, 0.00468; to `CC(C)Sc1n[nH]c2nc3c(c(=O)n12)C1(CCCC1)Cc1ccccc1-3`, -0.433.

As to `OC(Cn1nnc2ccccc21)Cn1c(C(F)(F)F)nc2ccccc21` (stereo not drawn), the z-score came to 1.03. `O=C(CC1(O)C(=O)N(Cc2cccc3ccccc23)c2ccccc21)c1cccnc1` (stereo not drawn) registered a z-score of -1.19. Regarding `Cc1cc(OC(F)F)ccc1NC(=O)Nc1ccc([N+](=O)[O-])cc1`, the z-score is -0.185. The result for `Cc1ccccc1Cn1ccc(=NCc2ccccc2)cc1` reads -0.0134; that for `Cc1nc2c3ccccc3nc(NNC(=O)CCC(=O)NC(C)C)n2n1`, 0.0536; that for `CCCCN1C(=O)CC(Sc2ccccc2C(=O)O)C1=O` (stereo not drawn), -0.231. On to `O=C1CCc2cc(S(=O)(=O)N3CCC(C(=O)NCCC4=CCCCC4)CC3)ccc2N1`, for which the z-score turned out to be 0.0449.

`COc1ccccc1OCCSc1nnnn1-c1ccc(C)cc1` returned a z-score of -0.505.

In the case of `CCOC(=O)Nc1ccc(S(=O)(=O)Nc2cc(C)nc(C)n2)cc1`, the z-score is -0.12. To `CC(=O)c1ccc(NC(=O)C2CC(=O)N(Cc3ccccc3)C2)cc1` (stereo not drawn) belongs 0.0516. On to `O=C(COC(=O)C(Cc1ccccc1)NC(=O)c1ccc(Cl)cc1)c1ccc(Cl)cc1` (stereo not drawn), for which the z-score was -0.0652. For the compound `CC(C)(C)n1nc2c(c1NC(=O)c1ccccc1F)CS(=O)C2` (stereo not drawn), the z-score is -0.492. In turn, `CC(C)(C)NS(=O)(=O)c1ccc(NC(=O)NC2CCCCC2)cc1` gave a z-score of -0.173.

With `CCOc1cc(NC(=S)Nc2cccc(OC)c2)c(OCC)cc1NC(=O)C(C)C`, the z-score worked out at 0.0299.

Compound `Cc1nnc(SCC(=O)Nc2sc3c(c2C#N)CCCC3)[nH]c1=O` yielded a z-score of -0.29.

For `Cc1ccc(C(C)C)c(OCC(=O)NN=C2CCCCCCC2)c1`, the z-score is -0.223.

With `N#Cc1ccc(NC(=O)COC(=O)C2Cc3ccccc3CN2C(=O)c2ccccc2)cc1` (stereo not drawn), the z-score is -0.202. `COc1ccc(NC(=O)c2cc(S(=O)(=O)N(Cc3ccccc3)c3ccccc3)ccc2Cl)cn1` came in with a z-score of -0.258. The result for `Cc1c([N+](=O)[O-])cc(C(=O)Nc2ccc(Cc3ccncc3)cc2)cc1[N+](=O)[O-]` reads -0.015; that for `CCOC(=O)c1ccc(NC(=O)CCNc2c(N3CCCC3)c(=O)c2=O)cc1`, 0.107; that for `O=c1cc(-c2ccccc2)[nH][nH]1`, 0.252. To `C=CCn1c(-c2csc3ccccc23)n[nH]c1=S` belongs -0.12; to `Cc1ccc(C)c(NC(=O)c2ccccc2Sc2ccc([N+](=O)[O-])cc2Cl)c1`, 0.179; to `O=c1[nH][nH]c(-c2ccccc2)c1C=Nc1ccccc1Cl`, -0.543. The result for `O=C(c1ccco1)N1CCN(S(=O)(=O)c2ccc3c(c2)CCN3C(=O)C2CCC2)CC1` reads 0.2; that for `CC(=O)Nc1nc(C)c(-c2csc(Nc3ccc(O)cc3)n2)s1`, -0.561; that for `S=c1[nH]nc(-c2cc(-c3ccco3)[nH]n2)n1-c1ccccc1Cl`, -0.465. The compound `COc1ccccc1/C=N/N(C(C)=O)c1nc(-c2ccc(F)cc2)cs1` returned a z-score of -0.134. `CCOC(=O)c1ccccc1NC(=O)c1ccc(F)cc1` displayed a z-score of -0.236. For the compound `Cc1ccc(C)c(NC2=C(Cl)C(=O)OC2OC(=O)c2ccco2)c1` (stereo not drawn), the z-score was -1.27. The compound `Cn1nnnc1SCC(=O)N1c2ccccc2Sc2ccc(Cl)cc21` displayed a z-score of -0.658.

Compound `N#Cc1nc(COc2ccc(F)cc2)oc1N1CCN(Cc2ccccc2)CC1` gave a z-score of -0.205.

Compound `O=c1oc2ccccc2cc1-c1csc(NN=C2CCCCC2)n1` gave a z-score of -0.185. `CCCCOC(=O)C1CCCC(C(=O)OCCCC)N1` (stereo not drawn) had a z-score of 1.39. To `CC(C)C(=O)NC(Nc1cc(C(F)(F)F)ccc1Cl)C(Cl)(Cl)Cl` (stereo not drawn) belongs -0.457; to `COc1ccc(C(C(=O)NC2CCCCC2)N(Cc2cccs2)C(=O)Cc2c[nH]c3ccccc23)cc1OC` (stereo not drawn), 0.273. The result for `CCOC(=O)c1nn(-c2ccc(Cl)cc2)c2nnc(Cc3ccccc3)c(=O)n12` reads -0.161; that for `Cc1c(Cl)cccc1-n1ccnc1SCC(=O)O`, -0.317. To `COc1cc(SC)ccc1C(=O)NCCOc1ccc(F)cc1` belongs -0.486; to `Cc1ccccc1NC(=S)NCCc1c[nH]c2ccccc12`, 0.196; to `COC(=O)CSc1nc2ncc(Cl)cc2[nH]1`, 0.0701.

With `CCNC(=O)/C(C#N)=C/c1c(N(Cc2ccccc2)Cc2ccccc2)nc2ccccn2c1=O`, the z-score was determined as 0.121. For `Cc1cc(C)nc(SCC(=O)c2cc3ccccc3oc2=O)n1`, the z-score was -0.151.

In turn, `O=C(CCN1C(=O)c2ccccc2C1=O)Nc1cc(F)ccc1F` yielded a z-score of 0.0571. The result for `O=S(=O)(Cc1cccc(F)c1)c1c[nH]c2ccccc12` reads 0.249; that for `COc1ccc(OCc2cccc(C(=O)Nn3cc([N+](=O)[O-])cn3)c2)cc1`, 0.046. To `COc1ccc(-c2nc(CS(=O)(=O)CC(=O)NCCc3cc(OC)ccc3OC)c(C)o2)cc1` belongs -0.299; to `Cc1cc(C(=O)COC(=O)c2ccccc2O)c(C)n1Cc1cccs1`, -0.245. Regarding `CN1C(=O)CC(C(=O)Nc2ccc(F)cc2)SC1=Nc1ccc2c(c1)OCO2` (stereo not drawn), the z-score was determined as 0.161. To `CC(CCc1ccccc1)NS(=O)(=O)c1ccccc1` (stereo not drawn) belongs -0.419; to `CCCCNC(=O)Cn1c2c(c(-c3ccccc3Cl)cc1=O)CCC2`, -0.692. `CCOc1ccccc1NC(=O)NC1CCN(CC(=O)Nc2ccc3c(c2)OCCO3)CC1` gave a z-score of -0.67. To `COCCN1Cc2cccc(C(=O)NCc3ccccn3)c2C1=O` belongs 0.551.

Take `CCOC(=O)c1ccc(COc2nc3ccccc3nc2-c2ccccc2NC(C)=O)o1`: the z-score is -0.128.

Take `CCCOc1ccccc1NC(=O)CC1Nc2ccccc2NC1=O` (stereo not drawn): the z-score was -0.508. With `CCOC(=O)c1sc(NC(=O)c2ccc(S(=O)(=O)N3CCCCC3)cc2)nc1-c1ccccc1`, the z-score is -0.886.

Consider `CCOc1ccc(CC2c3cc(OCC)c(OCC)cc3CCN2C(=O)c2cc(OC)c(OC)c(OC)c2)cc1OCC` (stereo not drawn), for which the z-score is -0.12.

`CCOc1ccc(NC(=O)N(CCC(C)C)C(C)c2ccco2)cc1` (stereo not drawn): the z-score was -1.62.

Compound `CCOc1ccc(C(=S)N2CCCC2)cc1OC` yielded a z-score of -0.0476. `COc1ccc(C2=NOC(C(=O)NC3CCCCC3)C2)cc1OC` (stereo not drawn) yielded a z-score of -1.39. In turn, `COc1cnc(SCc2ccc(Cl)c(Cl)c2)nc1Cl` displayed a z-score of 0.174. For the compound `CSc1sc(C(=O)O)c2c1C(=O)CCC2`, the z-score was -0.0515. Regarding `O=C(OCn1ncc(Cl)c(Cl)c1=O)c1ccc(C(F)(F)F)cc1`, the z-score is -0.397. With `CS(=O)(=O)N(CC(=O)Nc1cccc(F)c1)Cc1ccccc1`, the z-score is -0.0823. The result for `COc1ccc(-n2nc(C(=O)NCC(=O)NCC3CCCO3)c3ccccc3c2=O)c(OC)c1` (stereo not drawn) reads -0.612; that for `CCn1c(CNc2ccc(OC)cc2)nnc1SCC(=O)c1ccc(OC)cc1`, 0.18; that for `Cc1ccc(-n2c3c(c(=O)[nH]c2=S)C(C(F)(F)F)(C(F)(F)F)NC(=O)N3)cc1`, -0.142. To `CCOc1ccc(-c2cc(C(=O)NCCCN3CCN(CC)CC3)c3ccccc3n2)cc1` belongs -0.519; to `COc1ccc(CN=C2Nc3ccccc3CS2)cc1`, -0.049. To `CCN(CCNC(=O)C1CCN(S(C)(=O)=O)CC1)c1ccccc1` belongs -0.00745. For `O=C(Nc1ccc(Cl)c(Cl)c1)Nc1cc(C(=O)N2CCOCC2)ccc1N1CCCCC1`, the z-score came out at 0.242. The result for `CC(C)c1nc2oc3c(NCC4CCCO4)ncnc3c2c2c1CCC2` (stereo not drawn) reads -0.0165; that for `Cc1ccc(C2=C/C(=C\c3cccnc3)C(=O)O2)cc1`, -0.143; that for `COc1cc(NC(=O)COC(=O)/C=C/c2ccc(Cl)cc2Cl)cc(OC)c1`, -0.00952. Compound `Cc1cccc(N2C(=O)C(Cc3ccccc3)NC2=S)c1` (stereo not drawn) displayed a z-score of -0.114. The result for `Cc1cc(C)c(S(=O)(=O)N2CCCOC2CNC(=O)C(=O)NCCC2=CCCCC2)c(C)c1` (stereo not drawn) reads 0.0566; that for `O=c1c2ccccc2nnn1CSc1nc2sc3c(c2c(=O)n1CC1CCCO1)CCC3` (stereo not drawn), -0.608; that for `Cc1cc(-c2ccc(Cl)cc2)n2nc(N)nc2n1`, -0.373. `O=C(c1ccc(F)cc1)C1CCN(C(=O)NC2CCCCC2)CC1` had a z-score of 0.636. The result for `O=C1CCc2cc(S(=O)(=O)N3CCN(c4cccc(C(F)(F)F)c4)CC3)ccc2N1` reads 0.918; that for `CNC(=S)N(CCc1ccc(OC)c(OC)c1)Cc1cc2c(C)cc(C)cc2[nH]c1=O`, -0.187.

`c1ccc2c(c1)c1ccccc1n2CN1CCOCC1` showed a z-score of -0.144. The result for `CC(=O)c1c(C)[nH]c(C(=O)CSc2nnc(-c3ccc(Cl)cc3)n2CC2CCCO2)c1C` (stereo not drawn) reads -0.306.
